In all, about 310,000 compounds went through this assay and about 2,200 (0.71%) showed an effect of 50% or more. Effects have a minus sign here. This is one part of the list.

This assay deals with human ether-à-go-go-related gene (hERG) potassium channel (human, UniProt Q12809). The experiment in a line: primary screen, population patch clamp on CHO cells stably expressing hERG.
Chain of human ether-à-go-go-related gene (hERG) potassium channel (Q12809 whole entry, looked up): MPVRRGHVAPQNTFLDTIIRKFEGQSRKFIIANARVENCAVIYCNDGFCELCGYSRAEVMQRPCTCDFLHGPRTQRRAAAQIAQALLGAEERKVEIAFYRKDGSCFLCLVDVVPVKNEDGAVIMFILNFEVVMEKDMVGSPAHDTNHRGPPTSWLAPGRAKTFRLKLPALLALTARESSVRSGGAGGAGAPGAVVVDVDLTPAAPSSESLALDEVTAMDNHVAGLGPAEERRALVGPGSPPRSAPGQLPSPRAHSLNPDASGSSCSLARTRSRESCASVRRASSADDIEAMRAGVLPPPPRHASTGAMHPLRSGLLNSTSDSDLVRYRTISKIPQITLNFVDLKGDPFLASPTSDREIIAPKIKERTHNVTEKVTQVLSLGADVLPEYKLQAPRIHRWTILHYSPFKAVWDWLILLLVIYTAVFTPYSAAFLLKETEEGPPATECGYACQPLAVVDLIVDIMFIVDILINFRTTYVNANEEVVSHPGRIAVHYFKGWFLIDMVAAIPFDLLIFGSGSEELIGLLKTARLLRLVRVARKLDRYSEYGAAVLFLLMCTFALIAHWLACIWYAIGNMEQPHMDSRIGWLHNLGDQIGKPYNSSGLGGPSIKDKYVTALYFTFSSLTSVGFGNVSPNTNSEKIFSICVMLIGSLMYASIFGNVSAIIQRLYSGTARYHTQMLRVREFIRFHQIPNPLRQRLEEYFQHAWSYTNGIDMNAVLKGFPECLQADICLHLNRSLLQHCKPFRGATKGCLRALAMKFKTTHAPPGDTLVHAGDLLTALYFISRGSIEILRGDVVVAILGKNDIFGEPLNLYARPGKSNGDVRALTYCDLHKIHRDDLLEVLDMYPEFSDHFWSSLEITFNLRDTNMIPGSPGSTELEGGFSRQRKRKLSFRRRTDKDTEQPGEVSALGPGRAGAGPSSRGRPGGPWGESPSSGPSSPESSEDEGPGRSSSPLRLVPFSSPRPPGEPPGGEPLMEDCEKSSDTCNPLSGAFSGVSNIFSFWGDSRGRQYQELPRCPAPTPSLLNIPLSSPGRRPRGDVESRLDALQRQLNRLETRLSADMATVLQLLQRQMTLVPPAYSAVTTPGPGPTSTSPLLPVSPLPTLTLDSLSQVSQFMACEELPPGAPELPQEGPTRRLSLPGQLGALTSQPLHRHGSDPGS
Turning to `CCCCC(=O)Nc1cc(C(=O)NCCc2ccccc2)ccc1Cl`, the “hERG current change (%, negative = inhibition) at 1uM” value came out at 3.68%.
Next, `O=C(NCc1nc(-c2ccccc2)no1)c1ccc2c(c1)OCO2`: 13%; `CCCCCn1c(=O)[nH]c2c(c1=O)CCC2`: 5.51%.
In the case of `COc1ccc(CCNC(=O)CCN2C(=O)C3CC=CCC3C2=O)cc1OC` (stereo not shown) it was 10%; in that of `CCOc1ccc(/C=C2\C(=O)c3ccccc3OC2c2ccccc2)cc1` (stereo not shown), 12.8%; in that of `O=C(Cn1nnc(-c2ccccc2NC(=O)c2ccco2)n1)Nc1ccccc1`, 15.7%.
`C[C@H](NC(=O)[C@H](Cc1ccccc1)n1c(=O)[nH]c2ccccc2c1=O)C(=O)N1CCC(C(=O)O)CC1`: the “hERG current change (%, negative = inhibition) at 1uM” value is recorded as 7.12%.
In the case of `C=CCN1C(=O)/C(=N/n2cnnc2)c2ccccc21` it was 20.7%; in that of `CCc1nnc(NC(=O)CCC(=O)NC2CCCc3ccccc32)s1` (stereo not shown), 2.6%; in that of `O=C(c1ccc(Br)o1)N1CCC(Cc2ccccc2)CC1`, 16%.
In the case of `COCCn1c(=O)sc2ccccc2c1=O` it was 11.6%; in that of `COC(=O)[C@H](CC(C)C)NC(=O)N1CCC(C)CC1`, 10.5%; in that of `C[N+]1(C)CCc2cc3c(cc2[C@H]1[C@@H]1OC(=O)c2c1ccc1c2OCO1)OCO3.[I-]`, 16.5%.
Next, `Cc1nn(CC(=O)N2CCN(C34CC5CC(CC(C5)C3)C4)CC2)c(C)c1[N+](=O)[O-]`: 8.78%; `CCOC(=O)c1c(NC(=O)c2ccc(S(=O)(=O)N3CCOCC3)cc2)sc2c1CCN(C(C)C)C2`: -3.06%.
Turning to `CCOC(=O)/C=C1\SC(C)C(=O)N1CC(=O)N(CCC#N)c1ccccc1` (stereo not shown), the “hERG current change (%, negative = inhibition) at 1uM” value is 1.85%.
In the case of `O=C(c1cc2cc(Cl)ccc2oc1=O)N1CCOCC1` it was 3.97%.
`COc1ccccc1C(=O)NNC(=O)c1ccc(Br)o1`: the “hERG current change (%, negative = inhibition) at 1uM” value is on record as 11.8%.
Next, `Cl.NCCCC[C@H](NC(=O)C1CCNCC1)c1nnc([C@@H](N)Cc2ccc(O)cc2)o1`: 19.9%; `Cc1cccc(S(=O)(=O)NNC(=O)Cc2cccn2C)c1`: 15.7%; `N/C(=N\OC(=O)Cc1ccccc1)c1cccc(Br)c1`: 9.77%.
`O=C(Nc1cccc2ncccc12)c1cccc(F)c1`: the “hERG current change (%, negative = inhibition) at 1uM” value is reported as -1.16%.
Turning to `CSC(=NC#N)N1CCN(c2ccccc2)CC1`, the “hERG current change (%, negative = inhibition) at 1uM” value is on record as 6.71%.
Next, `O=C(COc1ccc(Cl)cc1Cl)Nc1ccc(C(=O)Nc2ccccc2C(=O)O)cc1`: 2.84%.
Regarding `Cc1ccc(C)c(NC(=S)NNC(=O)c2csc3c2CCC(C)C3)c1` (stereo not shown), the “hERG current change (%, negative = inhibition) at 1uM” value is reported as 5.44%.
Next, `Cc1ccc2nc(/C(C#N)=N/O)[nH]c2c1`: 14%; `C#CCOCCOCCOCCNc1nc(N2CCN(C(=O)[C@H](CCCC[NH3+])n3cc(CC(C)O)nn3)CC2)nc(N2CCN(C(=O)[C@H](CCCC[NH3+])n3cc(CC(C)O)nn3)CC2)n1.[Cl-]` (stereo partly shown): 7.41%.
`COc1ccc(Cl)cc1C(=O)NN=C1CCCC1`: the “hERG current change (%, negative = inhibition) at 1uM” value was 7.2%.
For `O=C(c1ccc2c(c1)OCCO2)N1CCN(c2ccc([N+](=O)[O-])cc2)CC1`, the “hERG current change (%, negative = inhibition) at 1uM” value turned out to be 1.16%.
On to `CN(CC(=O)Nc1ccccc1Cl)C(=O)COC(=O)c1ccc(Cl)cc1[N+](=O)[O-]`, for which the “hERG current change (%, negative = inhibition) at 1uM” value is -3.76%.
Take `Cc1sc(NC(=O)c2ccco2)c(C(c2cccnc2)N2CCN(CCO)CC2)c1C` (stereo not shown): the “hERG current change (%, negative = inhibition) at 1uM” value is listed as -10.5%.
In the case of `CC1(C)CC(=O)C2=C(C1)C(c1cn(-c3ccccc3)nc1-c1ccccc1)C(C#N)=C(N)O2` (stereo not shown) it was 11.7%; in that of `Cc1nc(N2CCN(Cc3ccccc3)CC2)[nH]c(=O)c1C`, -3.5%.
Take `O=C(c1ccc(Cl)c(Cl)c1)N1CCOCC1`: the “hERG current change (%, negative = inhibition) at 1uM” value is given as 3.12%.
Next, `CC(C)(C)[C@H]1CCC(=O)N([C@H](CSc2ccc(Br)cc2)Cc2ccccc2)CC1`: 11.8%.
With `CC(=O)Nc1ccc(C2NC(=O)c3ccccc3O2)cc1` (stereo not shown), the “hERG current change (%, negative = inhibition) at 1uM” value turned out to be 0.0336%.
Next, `CCOc1cc(C2C(C(=O)OC)=CN(C3CCCC3)C=C2C(=O)OC)cc(Br)c1O`: 11.2%; `O=P(c1ccccc1)(c1ccccc1)c1ccc(O)cc1`: 9.57%; `O=C(NCc1cccnc1)c1cccc(S(=O)(=O)N2CCCCC2)c1`: 13.5%.
As to `Cc1cnc(C(=O)OCC(=O)NC2CCCCCCC2)cn1`, the “hERG current change (%, negative = inhibition) at 1uM” value was determined as 3.97%.
Consider `COc1ccc(C2(O)CCN(C(=O)c3ccc4c(c3)OCO4)CC2)cc1`, for which the “hERG current change (%, negative = inhibition) at 1uM” value is given as 8.68%.
In the case of `CCCc1cc(=O)oc2cc(OCc3cccc(OC)c3)c(Cl)cc12` it was 8.83%; in that of `O=C1CC(C(F)(F)C(F)(F)C(F)(F)C(F)F)=Nc2ccccc2N1`, -1.58%.
For the molecule `CC(C)[C@H](NC(=O)Nc1cccc(Br)c1)C(=O)O`, the “hERG current change (%, negative = inhibition) at 1uM” value was determined as 6.27%.
As to `CCOC(=O)c1c(NC(=O)C2COc3ccccc3O2)sc2c1CCN(Cc1ccccc1)C2.Cl` (stereo not shown), the “hERG current change (%, negative = inhibition) at 1uM” value was 4.58%.
In the case of `COc1ccc(-n2c(=S)[nH]c3cc(C(=O)NCc4ccccc4)ccc3c2=O)c(OC)c1` it was 11.8%.
On to `O=C(CCCN1C(=O)c2ccccc2C1=O)NC1CCCCCC1`, for which the “hERG current change (%, negative = inhibition) at 1uM” value is listed as 2.82%.
Next, `C/C(=N\NC(=O)Cc1cccn1C)c1ccco1`: 13.1%; `Cc1cc2nnn(-c3nnc(-c4ccccc4)c4ccccc34)c2cc1C`: 5.53%.
Next, `COc1ccccc1/C=C/C=N/NC(=O)Cc1cccn1C`: 12%; `COC(=O)c1c(-c2snnc2C)n[nH]c1C`: 5.01%; `CN1CCc2c(c3ccccc3n2C)C1.Cl`: 13.8%.
In the case of `CC(C)(C)N(NC(=O)c1ccccc1)C(=O)c1ccc(C(=O)N(NC(=O)c2ccccc2)C(C)(C)C)cc1` it was 6.89%; in that of `COC(=O)c1sc2ccccc2c1NC(=O)c1ccc(S(=O)(=O)N2CCCCC2C)cc1` (stereo not shown), -3.24%; in that of `Cc1nn(CC(=O)NCc2ccc(C(=O)O)cc2)c(C)c1[N+](=O)[O-]`, 13.2%.
Regarding `COCCSc1ccccc1C(=O)Nc1ccc2c(c1)OCCO2`, the “hERG current change (%, negative = inhibition) at 1uM” value came out at 9.03%.
In the case of `CC(=O)Nc1ccc(Oc2nc(-c3ccccn3)nc3ccccc23)cc1`, the “hERG current change (%, negative = inhibition) at 1uM” value came to 12%.
Next, `O=C(COC(=O)CNC(=O)c1ccccc1)Nc1nc(-c2ccccc2)cs1`: 10.3%.
In the case of `O=C(COc1coc(CN2CCc3ccccc32)cc1=O)Nc1cccc(F)c1` it was 15.8%; in that of `COc1cccc(CNC(=O)COc2cccc3c2OC(C)(C)C3)c1`, 11.2%; in that of `CCOc1ccccc1CN1CCN(Cc2ccc3cccc(OC)c3n2)CC1CCO` (stereo not shown), -9.58%.
Next, `O=C(NCc1ccc(F)cc1)c1ccc[nH]1`: 7.17%.
Take `O=S(=O)(c1ccc(Br)cc1)N1CCCN(Cc2cccc(F)c2)CC1`: the “hERG current change (%, negative = inhibition) at 1uM” value was found to be 4.78%.
Take `COc1cc2c(cc1OC)C1=C(C#N)CN(CC(=O)O)CN1CC2`: the “hERG current change (%, negative = inhibition) at 1uM” value was found to be 9.68%.
In the case of `Cc1oc(-c2ccccc2F)nc1CS(=O)(=O)CC(=O)NCCCN1CCN(C)CC1`, the “hERG current change (%, negative = inhibition) at 1uM” value was 14.1%.
As to `CCOc1ccc(NC(=O)C2CCCN(c3nc(C)cc(C)n3)C2)cc1` (stereo not shown), the “hERG current change (%, negative = inhibition) at 1uM” value is 16.5%.
In the case of `CCOc1ccc(CNC(=O)Nc2ccccc2)cc1` it was 14.3%; in that of `CCC(C)[C@H](NC(=O)NCc1ccccc1Cl)C(=O)O` (stereo partly shown), 6.22%.
In the case of `COC(=O)[C@@H](NC(=O)c1cc(COc2cncc(Cl)c2)on1)c1ccccc1` it was 7.99%; in that of `Cc1ccc(C(=O)OCC(=O)NC(=O)c2ccc(C(C)(C)C)cc2)c(O)c1`, 12.7%.
Consider `O=C(OCc1nnc(-c2ccccc2)o1)c1cc([N+](=O)[O-])ccc1Cl`, for which the “hERG current change (%, negative = inhibition) at 1uM” value was found to be 8.93%.
In the case of `CCOC(=O)N1CCC(NC(=O)CS(=O)(=O)Cc2nc(-c3ccccc3Cl)oc2C)CC1` it was 17.3%; in that of `CC[C@H](C)[C@@H](C(=O)N1CCNCC1)n1cc([C@@H](N)Cc2ccc(O)cc2)nn1.Cl`, 25.5%.
Next, `CCC(C)N(C(=O)COc1ccc(-c2nnco2)cc1)C1CCS(=O)(=O)C1` (stereo not shown): 9.14%.
Regarding `COCC(C)NC(=O)c1cc(-c2cccc(OC)c2)on1` (stereo not shown), the “hERG current change (%, negative = inhibition) at 1uM” value is recorded as 24%.
For the molecule `Cc1ccc(S(=O)(=O)N2CCCC(C(=O)NCC3CCCO3)C2)cc1` (stereo not shown), the “hERG current change (%, negative = inhibition) at 1uM” value amounted to 15.9%.
Next, `CCn1nnnc1NC(=O)c1ccc2ccccc2c1`: 1%.
In the case of `COCCn1nnnc1C(c1ccc(OC)cc1)N1CCN(c2ccccc2F)CC1.Cl` (stereo not shown), the “hERG current change (%, negative = inhibition) at 1uM” value is on record as 15.8%.
Take `CCCCCCCCN1[C@@H](CC(=O)O)c2cc(F)ccc2S1(=O)=O`: the “hERG current change (%, negative = inhibition) at 1uM” value came out at 6.88%.
Next, `CCOc1ccc(CCNC(=O)CCn2nc(C)c3c(C)n(-c4ccccc4)nc3c2=O)cc1`: 3.35%.
In the case of `COc1cccc(NC(=O)COc2coc(CN3CCc4ccccc4C3)cc2=O)c1`, the “hERG current change (%, negative = inhibition) at 1uM” value came to 6.62%.
Next, `Fc1ccc(Br)cc1C1C=C(c2ccc(Br)s2)Nc2ncnn21` (stereo not shown): 6.52%; `COc1ccccc1-c1ccc(/C=N/O)o1`: 14.8%.
Next, `CCCC(CCC)C(=O)NCCN1CCOCC1.Cl`: 1.28%; `O=[N+]([O-])c1ccc(Cl)c(NC2=NCCCCC2)c1`: 13.5%; `CCOC(=O)C1=C(COC(=O)c2cccc(Cl)c2)NC(=O)NC1C` (stereo not shown): 10.6%.
In the case of `CNS(=O)(=O)c1ccc(CCC(=O)N2CCOCC2)cc1`, the “hERG current change (%, negative = inhibition) at 1uM” value is 12.8%.
Turning to `CC1Cc2cc(S(=O)(=O)N3CCN(c4cccc(Cl)c4)CC3)ccc2N1C(=O)C1CC1` (stereo not shown), the “hERG current change (%, negative = inhibition) at 1uM” value amounted to 24.6%.

Source of the values: article PMC4336329 (PLoS ONE, 2015).
